{"source": "patent US20050130892A1", "about": "(Xencor, published 2005)", "binders": {"B1": {"name": "FlagBAFF(F220S) (ligand)", "chain": "not shown", "notes": "range […]; Numbering on the full-length precursor; also called Flag(F220S); Flag-F220S-BAFF; not shown: N-terminal Flag-tag followed by a Factor Xa protease site"}}, "molecular_target": "T1, untagged BAFF(wt), soluble TNF homology domain of BAFF (THD, residues 134-285) (human, UniProt Q9Y275 in part)", "T1 construct": "range 134-285", "assay": "monomer exchange reaction, native gels and Western blot, 24, 72 and 168 hrs"}
{"binder": "B1", "values": [{"measurement": "binding result", "result": "binds"}]}
